Assay results taken from the supplement of paper PMC3334620.
Whole data set: some 33,000 sequences, median “E-score (-0.5 to 0.5)” near -0.013, cut for the highest 2% near 0.3. Some of the results follow.

Each sequence was assayed against T1, Msn1 (UniProt P22148) (assay: PBM E-score (8-mer binding enrichment) (E-score (-0.5 to 0.5)); higher = stronger / more preferred TF binding; most listed sequences are background and not binding sites). Details: protein concentration: 200 nM; construct: GST-full length.
T1 sequence: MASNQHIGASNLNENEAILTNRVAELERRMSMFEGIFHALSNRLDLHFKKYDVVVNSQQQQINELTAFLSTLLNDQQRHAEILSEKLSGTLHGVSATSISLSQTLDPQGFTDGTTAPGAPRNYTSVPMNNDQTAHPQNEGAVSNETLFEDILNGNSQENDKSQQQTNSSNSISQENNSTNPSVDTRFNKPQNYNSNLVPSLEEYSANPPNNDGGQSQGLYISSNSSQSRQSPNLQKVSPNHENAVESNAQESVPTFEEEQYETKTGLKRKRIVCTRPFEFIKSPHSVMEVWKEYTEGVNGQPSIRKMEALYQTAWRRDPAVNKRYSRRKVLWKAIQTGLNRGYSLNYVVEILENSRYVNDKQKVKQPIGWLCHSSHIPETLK
How it was run: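 E-scores (a modified Wilcoxon-Mann-Whitney statistic) were assigned by the Universal PBM Analysis Suite to every ungapped eight-base word pooled with its reverse complement. The input came from universal all-10-mer Agilent arrays made double-stranded by primer extension and probed with GST-tagged yeast transcription factors at about 100-200 nM. Fluorescent anti-GST detected bound protein, and masliner normalised the scans.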

Sequence	PBM E-score
AAGGGTGG	-0.122
GTTCTTTA	0.162
TAAGAACA	0.249
ACACAGTG	-0.0386
GATCAACC	-0.178
ACCCTGAA	-0.0936
AGCAACGA	-0.0942
GTTCGCTA	-0.0408
ATTCATGC	-0.172
GGGGCACA	-0.101
GGCAAGAA	0.12
GAGCAGGA	0.187
GATACGCA	0.11
CAACAAGG	0.257
CTGTGCAC	-0.151
AAAAATGA	0.143
AATGGGCA	-0.104
CAACTATC	-0.132
GCCACAGA	-0.234
CGAAACCG	0.0338
GGTGGCAC	-0.0685
CTCCATCA	-0.181
GCCGTTAC	-0.051
CTCCTGTC	0.0796
ATAAGGAG	-0.199

Sequence	PBM E-score
TCGCGAGA	0.00891
AGCTACGG	-0.108
CCACCCAA	-0.21
GACGATGC	-0.0765
AATAACGG	0.0528
GCAACACC	-0.112
AGTCAAGC	-0.285
ACGCGCCA	0.00563
ATTTTTAA	0.28
CAAAGGAC	-0.0287
CGATGGTA	-0.00123
AGCTAACT	-0.0808
ACAGTATC	0.0424
CAAGATTC	0.00889
ACGCTTGG	-0.103
CTGCTTGA	-0.134
AGATAGAC	0.176
GAATCAGA	0.00982
ATATATGC	0.187
CGCGCATC	-0.202
ACGCAGAT	0.066
CTCCTTCC	-0.326
ATCTGGGA	-0.0476
CAAGGGCG	-0.191
GACGGACC	-0.0404

Sequence	PBM E-score
GCTATGGA	-0.0554
AGGGAACT	-0.104
ATGAATAA	-0.00861
AGTCGGAA	0.0979
TCCAGCAA	0.133
GGGTGACA	-0.021
CGGTTTAG	0.0359
AGCAGAAT	0.0631
AATGATTG	0.0246
AGGTTCGA	0.0702
ACAAAGCC	0.195
TAAACACA	0.113
ATGTCAAC	0.263
AGGATCCG	-0.175
GCTCTAAA	0.0524
ATAAAAGA	0.0146
CCTATTCC	-0.0368
GCGTCGGA	0.102
AGATCGGG	-0.0957
ATCACGTC	0.0803
AGACTGTA	-0.0447
AATGGTGG	-0.173
ACTGTCGG	-0.0418
AATGAAAA	0.179
TCCTGAAA	0.105

Sequence	PBM E-score
AGGTTATC	-0.165
CCGTCCAC	0.0619
CTACGATA	0.143
GTGGCGCA	-0.11
TCGACACA	0.133
ATAGAGTA	-0.0249
GGTGCGAA	-0.057
GGTTCAAC	-0.074
AAGATAGT	0.00843
GAACACGA	0.169
ACAAGCCG	0.0757
CCCAGATA	-0.155
ATTGACCG	0.0223
ATCTTATA	0.185
ACCATTCA	-0.105
CAACGCGG	0.0564
ACAGCCGC	-0.0958
ACTTTGTC	0.41
CCAGCTCA	-0.139
GGGGCGTA	-0.279
CACTACCG	-0.181
CCGGCTGA	-0.0276
AAGAAAAG	0.177
TCGTACAA	0.294
CCAAGCCA	-0.0784

Sequence	PBM E-score
GAAGGCCA	-0.328
AATAACAA	0.189
CACTACTG	0.0319
GAAACTAA	-0.0367
GCTATGAA	-0.00947
ATTGTACG	0.151
GTCCAGTA	0.192
AACACAAT	0.109
ATACACGC	0.02
CTGCCCCA	-0.0558
ATCGGGTG	0.0905
AATCCGCA	0.137
AAGGTATC	-0.173
CTATGGTC	-0.0526
CTGGCGTA	-0.252
TCCGGTCA	0.0024
AATGTGCT	0.0565
AGGGCCTA	-0.165
CTGGCATC	-0.195
ACGCTTTC	-0.0766
CACCTTGC	0.0437
TGGCTACA	0.0201
AAGGGAGA	-0.179
CAAACAAA	0.0138
GATCATGA	0.101

Sequence	PBM E-score
CTCATCAC	-0.201
GCTGCATA	0.0815
AATGGCCA	-0.0941
AGCTTTCA	-0.0202
ACCCCGAT	-0.0736
AAGTGCTA	-0.0669
GGTTGGAC	0.196
CGACGGTC	-0.161
CAAACAGC	0.0478
AGCGTCGA	0.0853
TCCACTAA	0.0462
CGCCCGAG	0.0386
ACTGCGTA	-0.188
ATAACATA	0.136
CTGGGTAA	0.0366
ACTCCTAA	-0.0352
CGCGCAAA	0.205
AAGGGCCA	-0.18
CCATATTA	0.21
GGCCTCTA	-0.261
GAGATAGA	0.0282
TCCATGGA	0.248
AAATGCAC	-0.0162
TATGCCCA	-0.0374
ATCAAGTG	0.0141

Sequence	PBM E-score
TAGTGTAA	0.107
AAACCCGA	0.298
AAGGAAGA	0.0146
ACCTGCTG	0.0675
CGCGAGAC	0.128
CCCATGTA	0.0749
AGGCATGC	0.0372
AACTTCAG	-0.0437
AGGAGTTC	-0.199
GTGATTGA	0.128
CGCAAACC	-0.0969
AAGTGTAC	0.182
GGTTGAAA	0.13
CTGGCCTC	-0.248
CCTCTAAG	-0.0853
GGGCGTAA	-0.124
GACTTCTA	0.00831
AGGCAGAC	-0.0708
ACTCGACT	-0.104
CCTAAGTC	-0.135
AGTGAAAT	0.149
GAGCCCAC	-0.265
